Assay results taken from ChEMBL document CHEMBL4888484, “Replenishing the malaria drug discovery pipeline: Screening and hit evaluation of the MMV Hit Generation Library 1 (HGL1) against asexual blood stage Plasmodium falciparum ,using a nano luciferase reporter read-out” (2022).
Values joined by “and” are separate entries in the source; they are usually repeats but may differ in a detail not shown here. Equal values may be shown once. Among all 150,000 compounds or so, about 540 (0.36%) showed an effect of 50% or more. Some of the results follow.

System: Plasmodium falciparum
Test: Primary screen in NF54 nanoGlo assay, in single point, at 2uM, 72h; a lower Z score goes with more inhibition
Type: functional, Erythrocyte
Conditions: timepoint 72 hour

| SMILES | % Inhibition | Z score | % Inhibition (2 µM) |
| --- | --- | --- | --- |
| O=C(C[C@H]1COCCN1C(=O)c1ccc2c(c1)OCO2)c1ccco1 | -3% | 0.49 | – |
| COC(=O)[C@@H](NC(=O)c1cc(CCc2ccccc2)no1)C(C)C | 6% | -0.76 | – |
| Cc1ccc2c(=O)c(C(=O)c3ccc(F)cc3)cn(Cc3ccccc3Cl)c2n1 | -2% | 0.19 | – |
| NC(=O)C1CC2CCCCC2N1c1ncnc2scc(-c3ccccc3)c12 (stereo not drawn) | -7% | 0.82 | – |
| COc1ccnc(N2CC[C@@]3(O)CCN(CC(=O)N(C)C)C[C@H]3C2)n1 | -11% | 1.88 | – |
| Cc1cccc2c1CCN2C(=O)NCc1c(C)nn(C)c1C | -8% | 0.85 | – |
| O=C(NC[C@H](NC(=O)C1CC=CC1)C1CCCCC1)C1CC=CC1 | -11% | 1.14 | – |
| COc1ccc(CCNC(=O)N(C)Cc2noc(C3CCCC3)n2)cc1 | -26% | 2.39 | – |
| CC(C)c1nnc(NC(=O)c2cc(C(F)(F)F)c[nH]c2=O)s1 | 2% | -0.38 | – |
| Cc1ccc(S(=O)(=O)N2CCC(N3CCN(CCO)CC3)CC2)cc1 | -7% | 1.03 | – |
| CCCN(C(=O)c1cnnc(C)c1)C1CCN(c2cc(C)nc(C)n2)CC1 | -8% | 1 | – |
| CCN(CC)c1cc(CCC(=O)NCC(C)C)ccn1 | -3% | 0.43 | – |
| CCc1nc(CNS(=O)(=O)c2ccc(-c3ccno3)o2)cs1 | 1% | -0.22 | – |
| O=C(NCC1(CO)CCOCC1)Nc1ccnn1Cc1ccc(Cl)c(F)c1 | 6% | -0.8 | – |
| C[C@H]1CCCN(C(=O)c2cnc(OCC3CC3)cn2)CC1 | -17% | 2.18 | – |
| Cc1nn(C)c2nc(NC[C@H]3CN(C)CCN3C)sc12 | -3% | 0.44 | – |
| CN(C)c1n[nH]c(NS(=O)(=O)CCc2cccc(F)c2)n1 | -9% | 1.69 | – |
| CC1CCCC(OCC(=O)Nc2cnccn2)C1 (stereo not drawn) | -7% | 1.34 | – |
| Cc1noc([C@H]2CCCN(C(=O)c3nc(C(C)C)n(-c4ccccc4F)n3)C2)n1 | 1% | -0.08 | – |
| Cc1csc(CCNC(=O)[C@H]2CCS(=O)(=O)C2)n1 | -17% | 1.79 | – |
| O=C(c1cc2n(n1)CCN(Cc1ccc(Cl)cc1)C2=O)N1CCc2ccccc2C1 | -13% | 1.55 | – |
| CN(Cc1csc(-c2ccccc2)n1)C(=O)[C@@H](N)Cc1c[nH]cn1 | -10% | 1.29 | – |

| SMILES | % Inhibition | Z score | % Inhibition (2 µM) |
| --- | --- | --- | --- |
| Cc1ccc(NC(=O)C/C(N)=N/O)cc1 | – | – | 0% and -2% |
| Cn1ccnc1[C@@H](NCCNc1ccccn1)C1CC1 | -7% | 0.88 | – |
| CCn1nccc1C(=O)N1C2CCC1Cn1c(nn(Cc3ccccc3)c1=O)C2 (stereo not drawn) | 5% | -0.64 | – |
| CC(C)(C)CN1C[C@@H](NCc2ncc[nH]2)CC1=O | -12% | 1.52 | – |
| COc1nc(NC(=O)c2cc3ccccc3o2)n[nH]1 | -9% | 1.87 | – |
| CCOc1ccc([C@H]2CC(=O)Nc3c(S(=O)(=O)c4cccc(C)c4)csc32)cc1OC | -15% | 1.55 | – |
| O=C(CS(=O)(=O)c1ccc2ccccc2c1)N(c1ccccc1)c1ccccc1 | 0% | -0.05 | – |
| Cc1nc2c(c(NCc3ccccc3Cl)n1)CCC2 | 2% | -0.24 | – |
| CCOCCN1CCN(C(=O)C2CCS(=O)(=O)CC2)C[C@@H]1C | 4% | -0.5 | – |
| COCCCCS(=O)(=O)NC1CC2CCCc3cccc1c32 (stereo not drawn) | -1% | 0.07 | – |
| O=C(c1ccc2c(c1)OCO2)N1Cc2cccnc2C1 | -8% | 0.98 | – |
| CCn1nncc1CNC(=O)Nc1cc(C(F)(F)F)nn1C | -3% | 0.4 | – |
| O=C(NCC1(O)CCC1)[C@H]1CCn2cncc2C1 | -8% | 1.39 | – |
| CCC1C(c2ccc(C)cc2)CCN1C(=O)c1nc(=O)[nH][nH]1 (stereo not drawn) | -2% | 0.19 | – |
| CCc1cnc(CN2CCC(OC3CCC3)CC2)s1 | -7% | 0.94 | – |
| CC(C)(C)c1ccc(-c2nn3c(nc2=O)-c2ccccc2N[C@]3(C)c2ccc(Cl)cc2)cc1 | -5% | 0.65 | – |
| Cc1cnc(CCNC(=O)c2cn(C)cn2)n1C1CCCCCCC1 | 3% | -0.47 | – |
| Cc1sc(CCNC(=O)NC2CC2)nc1-c1ccccc1 | -2% | 0.25 | – |
| CN(C)Cc1nnc([C@H]2C[C@@H](NC(=O)c3cnc4ccccc4n3)C2)n1C | -11% | 1.79 | – |
| O=C(c1ccccc1F)N1CCN(c2nc(-c3ccc(Cl)cc3)no2)CC1 | 5% | -0.76 | – |
| CCn1ccc2c(CN3CCC4(CC3)CNC(=O)C4)cccc21 | -1% | 0.22 | – |
| O=C(c1cc[nH]c(=O)c1)N1CCC[C@H]1c1ccc(Cl)c(Cl)c1 | -1% | 0.21 | – |

| SMILES | % Inhibition | Z score | % Inhibition (2 µM) |
| --- | --- | --- | --- |
| O=C(NC1CC2CC1C1CCCC21)N1CCC(C(=O)N2CCCC2)C1 (stereo not drawn) | -20% | 2.61 | – |
| COc1ccc(NCc2ccc3c(c2)OCCO3)cn1 | -2% | 0.29 | – |
| O=C(NCCc1cccnc1)c1ccncc1F | -7% | 1.24 | – |
| COCc1nsc(N2CCN(Cc3ccccc3Cl)CC2)n1 | -11% | 1.45 | – |
| CC(C)(C)CC1(NC(=O)CCc2cn[nH]c2)CC1 | -17% | 2.2 | – |
| COc1ccc(O)c([C@H](C)NCc2nnc3n2CCCCC3)c1 | -8% | 0.75 | – |
| CCC[C@H]1CN(C(C)=O)C[C@@H]1NC(=O)c1c(C)cccc1OC | -8% | 1.3 | – |
| O=S(=O)(NCc1ccccc1-c1ccsc1)c1ccccc1 | -8% | 1.51 | – |
| Cn1ccc([C@H]2CCCN(C(=O)c3cccc(-n4cnnn4)c3)C2)n1 | -20% | 2.36 | – |
| COCC(C)(C)C(=O)N1CC[C@H](O)C(F)(F)C1 | -11% | 1.98 | – |
| Cc1noc2nc(CCC(=O)NCc3cccnc3)nc(N3CCCCC3)c12 | -11% | 1.7 | – |
| c1csc(-c2nnc(-c3ccc4ccccc4c3)c3nocc23)c1 | -8% | 0.9 | – |
| CC(=O)c1cccc(NC(=O)CNC(C)(C)C(C)(C)O)c1 | -5% | 0.86 | – |
| CN(C(=O)NCCc1nccn1Cc1ccccc1)C1CCC(C)(C)CC1 | -1% | 0.18 | – |
| CCNC(=O)N(Cc1ccc(F)cc1)Cc1cc(NC(=O)CC)ccc1N(C)C | -18% | 3.48 | – |
| CCCc1cnc(C)nc1-c1ccnc2c1ccn2C | -4% | 0.73 | – |
| Cc1cc(S(=O)(=O)N2CC(=O)Nc3cccnc32)sc1Cl | -3% | 0.55 | – |
| Cc1ccc(CNC(=O)c2c(C)oc3ccn(Cc4cccc(F)c4)c(=O)c23)cc1 | 7% | -1.07 | – |
| Cc1noc(C)c1S(=O)(=O)NC[C@@H](c1ccco1)N1CCCC1 | 35% | -3.92 | – |
| CCC[C@H]1CN(Cc2cnc(-c3cccc(C)c3)nc2)C[C@@H]1NC(C)=O | 7% | -1 | – |
| CC(NS(=O)(=O)CC(C)C(C)(C)C)c1nncn1C (stereo not drawn) | -8% | 0.88 | – |
| Cc1noc(C)c1S(=O)(=O)NCc1cnn2ccccc12 | -6% | 1.09 | – |

| SMILES | % Inhibition | Z score | % Inhibition (2 µM) |
| --- | --- | --- | --- |
| CCC(NC(=O)Cc1ccc(C)c(C)c1)[C@H]1C[C@H](O)C1 (stereo partly drawn) | -1% | 0.14 | – |
| CN1CCCCC[C@H]1C(=O)N[C@H]1CC[C@H](O)CC1 | -25% | 2.2 | – |
| O=C1[C@@H]2CCCN2S(=O)(=O)N1CC1CCC2(CC1)OCCO2 | -10% | 1.22 | – |
| O=C(NCC1CC12CCc1ccccc12)c1ccc2nncn2c1 (stereo not drawn) | -2% | 0.28 | – |
| Cn1cc(C(=O)N2CCc3[nH]c(-c4cccc(F)c4)nc3C2)cn1 | 2% | -0.18 | – |
| O=C(c1ccc(OC(F)F)nc1)N1CCO[C@H](c2ncon2)C1 | -6% | 0.96 | – |
| CCCC1CC(C(=O)NC(C)C(C)CO)CCO1 (stereo not drawn) | -6% | 1.18 | – |
| COCCNC(=O)c1cc2n(n1)CCCN(Cc1cccc(C)c1)C2=O | -8% | 1.39 | – |
| CCc1[nH]nc(-c2ccccc2OC)c1NC(=O)CC1CCCC1 | -18% | 1.8 | – |
| CCc1nsc(Nc2cnn(CCN3CCCCC3)c2)n1 | -2% | 0.33 | – |
| COc1cccc(-c2nc(CCN)no2)c1OC | -6% | 0.82 | – |
| CC(C)N(C)C(=O)N1Cc2ccccc2C[C@@H]1C | 2% | -0.21 | – |
| COc1cc(C)ccc1OCc1nc(C(=O)NC(C)C)cs1 | -6% | 1.12 | – |
| O=C(CCc1ccc(-c2ccccc2)o1)N1CCOCC1 | -6% | 1.05 | – |
| CN(C)c1ccc(CNc2nnc[nH]2)cc1F | -9% | 1.9 | – |
| Cc1nc(C(C)C)sc1[C@H](C)N(C)S(=O)(=O)C1CCS(=O)(=O)CC1 | 3% | -0.59 | – |
| Cc1cc(=O)cc(O)n1CCn1cnc2ccccc21 | -3% | 0.33 | – |
| CN1C(=O)[C@@]2(c3ccccc31)[C@@H](C(=O)NCc1ccc3c(c1)OCO3)C[C@H]1CCCN12 | -14% | 1.38 | – |
| O=C(NCC1CC1)C1(NCc2nc(-c3ccoc3)no2)CCCC1 | -4% | 0.43 | – |
| Cc1ccc(S(=O)(=O)N2CCN(C(=O)[C@@H]3CCCCO3)CC2)cc1 | -10% | 2.08 | – |
| Cn1nnc2c(C(C)(C)C)cc(C(C)(C)C)c-2n1 | -30% | 3.57 | – |
